Measured values reported in patent US6245917A, “Crystalline sodium phenytoin monohydrate” (Warner-Lambert Company, priority 1999, dated 2001).
Entries with a single value are a further part of the results.

Assay: DSC and TGA thermal analyses
Type: physicochemical
Conditions: DSC, nitrogen, 10° C./minute
Description: Differential scanning calorimetry (DSC) experiments were performed on a Dupont DSC 2000 and thermogravimetric analyses (TGA) were performed on a Dupont TGA 2000. Nitrogen was used as the purge gas and heating rates were 10° C./minute. Standards were run prior to sample analyses; Sn for DSC and calcium oxalate for TGA.
Both SPM and SPA were analyzed by x-ray powder diffraction (XRPD), infrared (IR) spectroscopy, solid-state nuclear magnetic resonance (SSNMR) spectroscopy, differential scanning calorimetry (DSC) and thermogravimetric analysis (TGA). The XRPD patterns of SPM and SPA are quite different and distinguishable. While the IR and SSNMR spectra of SPM and SPA are different, the differences are subtle. SPM and SPA behave quite differently on both DSC and TGA thermal analyses. SPA undergoes endothermic transitions at 364° C. and 409° C. that are accompanied by a weight loss of 72%.

With `O=C1NC(=O)C(c2ccccc2)(c2ccccc2)N1` [SPA, sodium phenytoin anhydrate, reference compound] the endothermic transition temperature (first endothermic transition) was 364 °C and the endothermic transition temperature (second endothermic transition) was 409 °C.
